Data reported in a compilation of properties of binary mixtures (doi:10.1021/je300542s).
Some of these densities may be calculated back from excess volumes.

Experiment: xn = mol fraction of the nth substance listed
Conditions: 101 kPa

O=C1CCCN1 + CC[n+]1ccn(C)c1.F[B-](F)(F)F
mass density [kg/m3]
Conditions | 293.15 K | 298.15 K | 303.15 K | 308.15 K
x1 = 0.0786 | 1278.8 | 1275 | 1271.3 | 1267.2
x1 = 0.0912 | 1278 | – | 1270.4 | 1266.4
x1 = 0.1278 | 1275.3 | 1271.5 | 1267.8 | 1263.8
x1 = 0.1711 | – | 1268.1 | – | –
x1 = 0.2294 | – | – | 1259.5 | –
x1 = 0.2686 | 1263.4 | 1259.6 | 1255.8 | –
x1 = 0.3292 | 1257.2 | 1253.4 | 1249.6 | 1245.5
x1 = 0.3684 | 1252.9 | 1249 | 1245.2 | 1241.1
x1 = 0.4283 | 1245.5 | 1241.6 | 1237.9 | 1233.7
x1 = 0.4695 | 1239.9 | 1236.1 | 1232.3 | 1228.2
x1 = 0.5281 | – | 1227.3 | 1223.6 | 1219.4
x1 = 0.5711 | 1224 | 1220.3 | – | 1212.4
x1 = 0.6283 | 1213.7 | 1209.9 | 1206.3 | 1202.2
x1 = 0.6603 | 1207.4 | 1203.6 | 1200 | 1196
x1 = 0.7302 | 1192.2 | – | 1184.8 | –
x1 = 0.7598 | – | 1181.5 | 1177.8 | –
x1 = 0.8296 | 1167 | 1163.3 | 1159.6 | 1155.8
x1 = 0.8901 | – | 1145.4 | – | 1137.9

CC[n+]1ccn(C)c1.F[B-](F)(F)F + CN1CCCC1=O
mass density [kg/m3]
Conditions | 293.15 K | 298.15 K | 303.15 K | 308.15 K
x2 = 0.0696 | – | – | 1269.5 | 1265.6
x2 = 0.0871 | – | 1271.1 | 1267.7 | 1263.8
x2 = 0.1273 | 1270.1 | 1266.5 | – | 1259.3
x2 = 0.1676 | 1265 | 1261.5 | 1258.3 | –
x2 = 0.2658 | 1250.8 | 1247.8 | 1244.6 | 1240.9
x2 = 0.2689 | 1250.4 | 1247.3 | – | 1240.4
x2 = 0.3228 | 1241.5 | 1238.6 | 1235.5 | 1231.8
x2 = 0.3683 | 1233.3 | 1230.5 | – | 1223.7
x2 = 0.4291 | 1221.4 | 1218.8 | – | –
x2 = 0.4744 | 1211.7 | 1209.1 | 1205.8 | 1202.1
x2 = 0.5227 | 1200.6 | 1198 | – | 1190.9
x2 = 0.5685 | 1189.2 | 1186.5 | 1183.1 | 1179.4
x2 = 0.6286 | 1173 | 1170.2 | 1166.7 | 1162.9
x2 = 0.6703 | 1160.8 | 1157.9 | – | 1150.5
x2 = 0.7291 | 1142.4 | 1139.1 | 1135.5 | 1131.6
x2 = 0.7711 | 1128.1 | – | 1120.9 | 1116.9
x2 = 0.8188 | 1110.8 | 1107.1 | – | –
x2 = 0.8887 | 1083.3 | 1079 | 1074.9 | 1070.6
